# Measurements as given in the supplement of paper PMC12632987.
# The full ranking holds about 4,500 sequences; the median of “median log2 fold change of GCK-ALFA target abundance (FLAG IP / Myc IP barcode read proportion)” is about 0.078, and the lowest 2% start at about -0.6. This is one part of the list.
# B1: GBRAP_14_3767 (protein)
# chain: MEKKKEIVRETAEEIVALLAEIAPEKAAEFRAAVEEVVEETLKRAEETGDWEEAAVEGEDRLVARIGAITADLPAARRAELQAVVRVLFGQAILEIDEEE
# B2: GBRAP_184_5181 (protein)
# chain: MLLERTLRFADVAELEAKLAEIAAEVAGTHADLVLHVEAEKVTVEMAEALMDGVAAIKAAGYARRILVDIDGDVSEEVADVLVEKAREAGVQVALALEEE
# B3: GBRAP_26_5469 (protein)
# chain: IEEGLDKLLEELEKALDELLDPETAAAAKAEVSTIIYEAEEEIEKNKNNYEEIKKILEEMKKEIEEELKTLGVPEDKREKLVKVVEEEIEKILEELEKEK
# B4: GBRAP_45_5809 (protein)
# chain: SEEYKEALEKALAKLEEALKQAKKLLEKDPEAFQPIVDKLEEIKKLLLENPEDLEAAEEAARLLREALKEALANPGTTAEFAELLLEALNYLEDVANLLK
# B5: GBRAP_35_5516 (protein)
# chain: STDDTIVEMLAATLEDAVLAVDDLPADTLATVVAQLARAAREVIEEEKDNIEGAKKLAKELEALLAAVRARGLDDPALQAAAAQLEEVLKLAREVAEKEK
# B6: GBRAP_160_4025 (protein)
# chain: SASVAAIVADFREDLELILAHADEISEATLAGAIRTAIGQAILDVHESPDLADLTREEVDALDAQADAVAARIAAGDPAERRAAAAELAAAVEAAIKKAA
# B7: GBRAP_14_3859 (protein)
# chain: MEALIKAVEETAEELKKFIKEVAPEHAEEIKKKVEELAKKIIKKIKEENLNIEEVEELVDEAAEELGKYLKEKGYVSDTEIAAIKAHLLSTMLLKLEEIE
# B8: GBRAP_160_4230 (protein)
# chain: SETVEKIVEITREELLEALELIEGETPEERKVVLDVTVGRILLEVDEIEEATEEMEEVVDEEVEEIAERLLAAEDATPEEKRAIVEEGVERLRERLEEVE
# B9: GBRAP_11_2774 (protein)
# chain: EKERLEKIAAKAKEAIALVDALIAAGTTDAALQAALAAALAELAKLVEALDDADLKALVAIAQEEWEAAQADPENAEAHLKRMRAALRVLEGQVLLLLEE
# B10: GBRAP_11_2691 (protein)
# chain: KKEKLKKGAELAEELAAVLAELLAVGVDDAELRARAKKLLEELLKLTKEHGDEGDKKLTEILKEEWEKALADPANAAAHVQNALAIARVLSGDYLLKIEE
# B11: GBRAP_166_4963 (protein)
# chain: SQEELVEELKALIEEKAEQAKTADPEEKLELLAEVAEAIREAREAGLSEEDLRELIRRTLELFSAVGLSLSTVEGALTILADLDEEEIDILEEAVKEVKA
# B12: GBRAP_184_5238 (protein)
# chain: KVLEVTVEAADAEELRAKLEAVFAEAEAAGARVRLDVLVEELTPEKVDVLTEEIARMAAAGLLDLVEVTSSTPIAEEHIDRLVAAADAAGVRLVIAEPDE
# B13: GBRAP_11_2735 (protein)
# chain: KKEKLKEVRELAEEAARAAAELLERGVDDEELRRRIEELLREIEEKVRELEDEFLRELVEIAREDFERSLADPENAEEHLARARAALRVLAGQVQLLIDE
# B14: GBRAP_160_4483 (protein)
# chain: SEKVEEAKEEVEEIIEEAVEAIKEAEPEDRPKIGRAYAGDIAMEARELGVVDDEEEEELLKLAEEGMEKIVKASEKGPEEMEKAAKELKKELKEFLKKKS
# B15: GBRAP_160_4598 (protein)
# chain: SEEVEKLIKEIDEIVEEAKKLIEGQTKEEQIAIIKVAMGEILLLLDLSEIVSDETEEKADEIADKLIKTIESNPDLTLEEIKALIDKAREEIKKAIKEDA
# B16: GBRAP_160_4055 (protein)
# chain: AEEKERLIADVDAAEAAILAVIDEEGAEAAAVMADGEFGAIIMEAAELPTASDELVDALEAIRDALVAGLRANAAASPAELKALVRAAAAAAKEAIKKHY
# B17: GBRAP_128_3267 (protein)
# chain: MNPEVVAYAEAFVEKLKAAGPEEAKKLADELMEKLKTMSLEEVEQFVEVLEKKLKELSVEKLEILADAARKHRDEFSPEKANLVAGLEVEALNEAVEKEE
# B18: GBRAP_11_2850 (protein)
# chain: EEEKLKKVAKLAEELEKLLKQLIAAGTTDAALIAEVKAALEKLLKAAKELGDENLIELAEAAKEDVAAAQADPATRAQHFNNALAFVQALLGEVLLKLEE
# B19: GBRAP_11_2751 (protein)
# chain: KKEKLKEIAKLAEEAAELVEKLIEEGYDDEELRKELEEKLKELRKKVKEYGDKSLEKLVEIAEENFKKALEDPENAEHYLKLALAALRVLEGQVLLLIEE
# Biological target: GABARAP, O95166
# Experiment: median log2 fold change of GCK-ALFA target abundance (FLAG IP / Myc IP barcode read proportion) (log2 ratio); each designed protein is fused to an ALFA-tag nanobody in HEK293 cells to bring the named protein to FLAG-tagged glucokinase (GCK); Myc marks an untargeted standard; higher = target protein stabilised (more abundant)
# Conditions: target protein: 3xFLAG-MCP-GCK-ALFA reporter; HEK293 landing pad (RPLP)
# Summary of the method: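 The readout is target abundance, the per-binder median log2 ratio of FLAG to Myc barcode read proportions. It came from HEK293 landing-pad cells carrying a recombined ALFA-nanobody-fused binder library, induced with 2 μg mL^−1 doxycycline and transfected with a plasmid for a FLAG-tagged target and a Myc-tagged standard. After 48 h, lysates were immunoprecipitated with anti-FLAG and anti-Myc, and circular RNA barcodes were reverse transcribed, amplified and sequenced. Each barcode needed a proportion of at least 10^−7 in both replicates and each binder at least 3 barcodes per replicate, a pseudocount of 10^−6 was added, and the replicates were pooled.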
# Chain of GABARAP, O95166 (O95166 whole entry, the tested form may be a part): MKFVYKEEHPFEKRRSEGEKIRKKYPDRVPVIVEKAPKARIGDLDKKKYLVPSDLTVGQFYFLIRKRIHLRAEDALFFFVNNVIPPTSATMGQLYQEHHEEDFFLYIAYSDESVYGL
row,Binder,median log2 fold change
1,B1,-0.172
2,B2,0.0339
3,B3,-0.139
4,B4,0.329
5,B5,-0.336
6,B6,0.0208
7,B7,0.181
8,B8,-0.166
9,B9,0.131
10,B10,-0.0665
11,B11,-0.331
12,B12,0.168
13,B13,-0.0478
14,B14,0.234
15,B15,0.0945
16,B16,0.183
17,B17,0.119
18,B18,0.272
19,B19,0.0472
